Data as given in article PMC4274898.
Results are given in words; binding and its absence hold for the method and conditions named. Some results given as binding are weak or reduced against the parent protein; the word gives no strength.

Protein sequences, listed by entry. Tags and fused reporters are not part of them.
UniProt Q38832: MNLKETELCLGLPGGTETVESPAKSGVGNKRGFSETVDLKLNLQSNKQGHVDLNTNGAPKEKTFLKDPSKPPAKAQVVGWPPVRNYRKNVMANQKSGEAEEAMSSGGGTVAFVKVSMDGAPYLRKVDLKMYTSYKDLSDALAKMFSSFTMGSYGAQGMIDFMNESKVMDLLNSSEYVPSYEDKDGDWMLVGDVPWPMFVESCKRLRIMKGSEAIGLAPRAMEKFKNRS

Target: T1, ARF17 (Arabidopsis thaliana) (UniProt Q84WU6)
T1 sequence: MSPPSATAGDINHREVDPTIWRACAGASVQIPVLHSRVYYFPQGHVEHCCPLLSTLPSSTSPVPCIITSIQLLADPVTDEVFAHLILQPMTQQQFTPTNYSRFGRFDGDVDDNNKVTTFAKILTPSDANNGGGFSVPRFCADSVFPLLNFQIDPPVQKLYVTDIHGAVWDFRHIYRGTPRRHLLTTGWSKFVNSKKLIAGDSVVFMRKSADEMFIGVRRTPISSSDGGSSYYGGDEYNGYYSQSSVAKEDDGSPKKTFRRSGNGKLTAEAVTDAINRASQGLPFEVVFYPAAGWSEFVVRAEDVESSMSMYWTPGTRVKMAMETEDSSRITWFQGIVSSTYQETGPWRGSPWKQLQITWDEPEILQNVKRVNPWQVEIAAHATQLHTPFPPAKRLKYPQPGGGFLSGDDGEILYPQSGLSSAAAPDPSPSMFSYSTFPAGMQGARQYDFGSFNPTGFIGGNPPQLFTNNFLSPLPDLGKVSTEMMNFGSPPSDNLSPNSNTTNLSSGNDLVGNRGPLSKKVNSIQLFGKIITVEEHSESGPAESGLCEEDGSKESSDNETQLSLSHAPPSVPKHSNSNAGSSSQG
Assay: two-hybrid; S. cerevisiae AH109 co-transformed with pGBKT7-ARF (bait) and pGADT7-Aux/IAA (prey); growth on SD/-Ade-His-Leu-Trp against SD/-Leu/-Trp; at least 10 independent colonies; serial dilutions for strength

- binding: binds
Substance: Aux/IAA14 (from UniProt Q38832 1-228)
